± gives the standard deviation of the averaged measurements. Growth of baker's yeast expressing single-residue variants of Pneumocystis jirovecii dihydrofolate reductase in 8.8 or 44 µM methotrexate (about 75% and 90% inhibition of the wild type). Selection coefficient per generation; 0 = like wild type, above 0 = less sensitive, below 0 = more sensitive or loss of function. No active / inactive call per row; the paper calls resistant above 0.220 (8.8 µM) or 0.243 (44 µM) together with a significance test. At 44 µM about 15% of codons end with one read or none, so the lowest values are floors (replicate rank correlation 0.74; 0.94 at 8.8 µM).
B1: UniProt A0EPZ9; numbered along this chain (parent)
chain: MDWQKSLTLIVALTLSRGIGLKNDLPWKLKSDMMFFSRVTSGLLVTRSTGQMNVVLMGRKTWESLPAHSRPLKNRINVVISRQEVLDLGGGAYHARSLDDALALLSQIYDSTSKIQLNRVFVIGGGELCKAAMEHSRLNRIIATVIHNEVDCDVFFPIDFRSSQSCLPWRKQDHSVLEAWVGSKVPQGKINENGFIYEFEMWIRDI

Variants of: B1
Assay: selection coefficient against synonymous wild-type codons (log2 per generation); higher = faster growth than wild type
Conditions: with Saccharomyces cerevisiae carrying the variant on a plasmid
Protocol: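 Pooled growth of yeast carrying single-residue variants of P. jirovecii dihydrofolate reductase (own DFR1 gene intact), two passages at 30 °C, three cultures, sequenced before and after. Codons with under 15 starting reads are left out; codons of one change are averaged.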

Variant | selection coefficient against synonymous wild-type codons (log2) (methotrexate 8.8 µM) | selection coefficient against synonymous wild-type codons (log2) (methotrexate 44 µM)
W27L | 0.16 ± 0.088 | 0.184 ± 0.088
W27M | 0.0561 ± 0.0064 | 0.0248 ± 0.075
W27N | -0.306 ± 0.072 | -0.14 ± 0.082
W27P | -0.293 ± 0.1 | -0.102 ± 0.09
W27Q | 0.257 ± 0.0067 | 0.254 ± 0.046
W27R | -0.185 ± 0.1 | -0.0905 ± 0.12
W27S | -0.053 ± 0.07 | -0.0394 ± 0.14
W27T | 0.0777 ± 0.033 | 0.122 ± 0.065
W27V | -0.126 ± 0.1 | -0.0201 ± 0.082
W27Y | 0.112 ± 0.039 | 0.168 ± 0.028
K28A | 0.0264 ± 0.036 | 0.0548 ± 0.074
K28C | -0.108 ± 0.082 | -0.0422 ± 0.061
K28D | -0.0855 ± 0.047 | -0.101 ± 0.24
K28E | -0.0181 ± 0.036 | -0.0181 ± 0.17
K28F | -0.0344 ± 0.012 | -0.16 ± 0.1
K28G | -0.0619 ± 0.051 | -0.113 ± 0.14
K28H | 0.0117 ± 0.028 | -0.00144 ± 0.015
K28I | 0.0358 ± 0.039 | 0.0361 ± 0.01
K28L | 0.0126 ± 0.047 | 0.00166 ± 0.14
K28M | 0.0698 ± 0.033 | -0.0764 ± 0.12
K28N | -0.12 ± 0.048 | -0.0652 ± 0.016
K28P | 0.28 ± 0.046 | 0.245 ± 0.058
K28Q | 0.037 ± 0.019 | -0.00425 ± 0.082

Variant | selection coefficient against synonymous wild-type codons (log2) (methotrexate 8.8 µM) | selection coefficient against synonymous wild-type codons (log2) (methotrexate 44 µM)
K28R | -0.0121 ± 0.044 | -0.0741 ± 0.12
K28S | -0.0923 ± 0.054 | -0.0769 ± 0.064
K28T | 0.0967 ± 0.022 | -0.0484 ± 0.21
K28V | -0.0445 ± 0.07 | -0.056 ± 0.15
K28W | -0.168 ± 0.012 | -0.167 ± 0.064
K28Y | -0.29 ± 0.048 | -0.105 ± 0.1
L29A | 0.415 ± 0.035 | 0.455 ± 0.045
L29C | 0.0351 ± 0.022 | -0.0128 ± 0.089
L29D | 0.264 ± 0.053 | 0.244 ± 0.074
L29E | 0.357 ± 0.019 | 0.386 ± 0.031
L29F | 0.0813 ± 0.015 | 0.0362 ± 0.049
L29G | 0.22 ± 0.04 | 0.266 ± 0.07
L29H | 0.277 ± 0.02 | 0.227 ± 0.088
L29I | 0.00304 ± 0.054 | -0.0881 ± 0.11
L29K | 0.441 ± 0.041 | 0.506 ± 0.074
L29M | 0.511 ± 0.01 | 0.602 ± 0.031
L29N | 0.31 ± 0.036 | 0.284 ± 0.028
L29P | 0.0794 ± 0.032 | 0.113 ± 0.06
L29Q | 0.446 ± 0.007 | 0.479 ± 0.042
L29R | 0.131 ± 0.045 | 0.315 ± 0.082
L29S | 0.19 ± 0.038 | 0.171 ± 0.079
L29T | 0.654 ± 0.044 | 0.791 ± 0.071
L29V | 0.0799 ± 0.021 | 0.0463 ± 0.075

Variant | selection coefficient against synonymous wild-type codons (log2) (methotrexate 8.8 µM) | selection coefficient against synonymous wild-type codons (log2) (methotrexate 44 µM)
L29W | -0.0296 ± 0.057 | -0.0749 ± 0.11
L29Y | 0.183 ± 0.043 | 0.257 ± 0.041
K30A | 0.0997 ± 0.039 | 0.098 ± 0.064
K30C | -0.0143 ± 0.0076 | 0.0134 ± 0.18
K30D | -0.0494 ± 0.029 | -0.0163 ± 0.03
K30E | 0.0918 ± 0.012 | 0.0876 ± 0.057
K30F | 0.0303 ± 0.063 | 0.113 ± 0.084
K30G | 0.0483 ± 0.062 | 0.0613 ± 0.053
K30H | 0.0183 ± 0.033 | 0.000888 ± 0.13
K30I | 0.0628 ± 0.054 | 0.0847 ± 0.035
K30L | 0.0128 ± 0.061 | -0.00468 ± 0.073
K30M | 0.101 ± 0.033 | 0.167 ± 0.0053
K30N | 0.0232 ± 0.092 | -0.0153 ± 0.12
K30P | -0.135 ± 0.074 | -0.0145 ± 0.097
K30Q | 0.00977 ± 0.043 | 0.0225 ± 0.051
K30R | -0.12 ± 0.082 | -0.113 ± 0.13
K30S | 0.0146 ± 0.071 | 0.0132 ± 0.11
K30T | 0.166 ± 0.061 | 0.176 ± 0.12
K30V | 0.0358 ± 0.053 | 0.000835 ± 0.14
K30W | 0.0253 ± 0.033 | 0.0479 ± 0.028
K30Y | 0.0488 ± 0.06 | -0.128 ± 0.093
S31A | -0.113 ± 0.045 | -0.17 ± 0.16
S31C | -0.218 ± 0.11 | -0.154 ± 0.11

Variant | selection coefficient against synonymous wild-type codons (log2) (methotrexate 8.8 µM) | selection coefficient against synonymous wild-type codons (log2) (methotrexate 44 µM)
S31D | 0.213 ± 0.062 | 0.167 ± 0.081
S31E | 0.129 ± 0.024 | 0.153 ± 0.054
S31F | -0.215 ± 0.035 | -0.187 ± 0.15
S31G | -0.188 ± 0.091 | -0.163 ± 0.075
S31H | 0.109 ± 0.042 | 0.128 ± 0.021
S31I | -0.504 ± 0.089 | -0.256 ± 0.092
S31K | 0.000538 ± 0.028 | -0.0247 ± 0.079
S31L | -0.417 ± 0.086 | -0.275 ± 0.14
S31M | -0.245 ± 0.013 | -0.234 ± 0.13
S31N | 0.12 ± 0.05 | 0.0807 ± 0.11
S31P | -0.109 ± 0.06 | -0.138 ± 0.18
S31Q | 0.0873 ± 0.014 | 0.0777 ± 0.02
S31R | -0.0108 ± 0.045 | -0.0171 ± 0.09
S31T | -0.0861 ± 0.054 | -0.0912 ± 0.11
S31V | -0.395 ± 0.11 | -0.263 ± 0.098
S31W | -0.416 ± 0.12 | -0.311 ± 0.11
S31Y | -0.237 ± 0.057 | -0.27 ± 0.21
D32A | -0.563 ± 0.062 | -0.319 ± 0.14
D32C | -0.494 ± 0.16 | -0.0999 ± 0.14
D32E | 0.452 ± 0.022 | 0.5 ± 0.036
D32F | -0.581 ± 0.053 | -0.224 ± 0.12
D32G | -0.59 ± 0.1 | -0.251 ± 0.074
D32H | -0.511 ± 0.043 | -0.262 ± 0.097

Variant | selection coefficient against synonymous wild-type codons (log2) (methotrexate 8.8 µM) | selection coefficient against synonymous wild-type codons (log2) (methotrexate 44 µM)
D32I | -0.52 ± 0.12 | -0.217 ± 0.17
D32K | -0.547 ± 0.08 | -0.341 ± 0.031
D32L | -0.492 ± 0.11 | -0.248 ± 0.13
D32M | -0.685 ± 0.037 | -0.438 ± 0.0045
D32N | -0.243 ± 0.28 | 0.0154 ± 0.29
D32P | -0.494 ± 0.083 | -0.314 ± 0.036
D32Q | -0.331 ± 0.085 | -0.135 ± 0.13
D32R | -0.658 ± 0.046 | -0.289 ± 0.11
D32S | -0.522 ± 0.13 | -0.257 ± 0.1
D32T | -0.561 ± 0.1 | -0.356 ± 0.095
D32V | -0.386 ± 0.24 | -0.129 ± 0.3
D32W | -0.547 ± 0.15 | -0.274 ± 0.019
D32Y | -0.506 ± 0.13 | -0.234 ± 0.15
M33A | 0.958 ± 0.035 | 1.22 ± 0.021
M33C | 0.755 ± 0.036 | 0.949 ± 0.022
M33D | 0.672 ± 0.046 | 0.7915 ± 0.0068
M33E | 0.633 ± 0.024 | 0.727 ± 0.038
M33F | 0.313 ± 0.011 | 0.365 ± 0.0094
M33G | 0.981 ± 0.035 | 1.27 ± 0.023
M33H | 0.969 ± 0.025 | 1.26 ± 0.018
M33I | 0.137 ± 0.04 | 0.324 ± 0.017
M33K | 0.836 ± 0.029 | 1.09 ± 0.015
M33L | 0.298 ± 0.2 | 0.61 ± 0.3

Source: the supplement of paper PMC11125491
